Test results from PubChem BioAssay AID588453 (National Center for Advancing Translational Sciences (NCATS), 2011).
Hit rate of the full screen: of about 390,000 compounds, about 4,000 (1%) were called active. This list was built around the results that the source calls inconclusive (neither active nor inactive); the mix of calls is not that of the screen. Calls come from the whole dose curve; as a rule, active = well fitted inhibition curve with a large enough effect; inconclusive = small, poorly fitted or top-dose-only effect; inactive = no such curve, though single readings can be large or run the other way. Potencies beside an inconclusive call are fits to weak or partial responses and may not hold up.

What follows are molecules tested against Thioredoxin reductase 1, cytoplasmic (Rattus norvegicus) (UniProt O89049) (assay: qHTS Assay for Inhibitors of Mammalian Selenoprotein Thioredoxin Reductase 1 (TrxR1): qHTS). Settings: recombinant rTrxR1, NADPH fluorescence consumption, selenite substrate; series mostly up to 114 µM.
Procedure, shortened: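 Rat TrxR1 (90 nM in the dispensed reagent) was pre-reduced with 400 uM NADPH for 5 min at room temperature, then incubated with compound for 15 min. After 400 uM selenite was added, NADPH fluorescence (Ex 340/Em 450 nm) was followed for 8 min.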
Note: nearly all actives have a fitted effect of over 65% in size.
Potency is the fitted concentration of half-maximal effect; tags give direction and shape of the fitted curve.

Sequence of UniProt O89049 (O89049 whole entry, looked up): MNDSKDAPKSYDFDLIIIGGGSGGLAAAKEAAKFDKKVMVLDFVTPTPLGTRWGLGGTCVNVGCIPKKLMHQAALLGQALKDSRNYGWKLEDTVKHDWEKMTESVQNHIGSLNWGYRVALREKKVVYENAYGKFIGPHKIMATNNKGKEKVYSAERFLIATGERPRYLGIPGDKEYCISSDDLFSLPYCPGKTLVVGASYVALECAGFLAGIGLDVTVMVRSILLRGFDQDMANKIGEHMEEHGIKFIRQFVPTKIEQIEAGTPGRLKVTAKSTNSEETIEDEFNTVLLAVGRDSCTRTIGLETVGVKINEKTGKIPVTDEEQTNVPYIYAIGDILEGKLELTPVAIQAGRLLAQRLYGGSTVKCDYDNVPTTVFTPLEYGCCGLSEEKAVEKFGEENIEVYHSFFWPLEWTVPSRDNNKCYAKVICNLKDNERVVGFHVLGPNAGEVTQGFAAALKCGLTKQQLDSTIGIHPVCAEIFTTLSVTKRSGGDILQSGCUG

Structure (SMILES) | Potency
CC(C)CC(=O)NC(=S)Nc1ccc(NC(=O)c2cccs2)cc1 | inconclusive: 10 µM [inhibitor, full curve]
CCS(=O)(=O)Nc1cccc(C2=NN(C(=O)c3ccco3)C(c3ccco3)C2)c1 (stereo not drawn) | inconclusive: 70.8 µM [inhibitor, partial curve]
Cc1ccc(N=C2CCCN2Cc2ccccc2)c(C#N)c1 | inconclusive: 89.1 µM [inhibitor, single point]
COc1cc2nc(=S)n3[nH]c(CCn4c(C)nc5ccccc54)nc3c2cc1OC | inconclusive: 7.94 µM [inhibitor, full curve]
CC(C)(C)C(=O)NC(=S)NCc1ccccc1 | inconclusive: 8.91 µM [inhibitor, full curve, poor fit]
CCOC(=O)CSC1=NC(=O)/C(=C\c2ccc(Cl)cc2)S1 | inconclusive: 25.1 µM [inhibitor, partial curve]
CC(C)[C@H](NC(=O)OCc1ccccc1)C(=O)OCC(=O)NCc1ccco1 | inconclusive: 70.8 µM [inhibitor, single point]
O=c1[nH]c(/C=C/c2cccc([N+](=O)[O-])c2)c([N+](=O)[O-])c(=O)[nH]1 | inactive
Cc1cnc(NC(=O)c2sc3ccccc3c2Cl)s1 | inactive
COC(=O)/C=c1\sc2ncnn2c1=O | inconclusive: 1.41 µM [inhibitor, full curve, poor fit]
C[C@@H](C(=O)NCc1ccc(S(C)(=O)=O)cc1)[C@H]1C[C@]1(C)[C@H](NC(=O)OCc1ccccc1)c1ccccc1 | inactive
COC(=O)CN1C(=O)[C@H]2[C@@H](c3ccc(C)o3)N3C(=O)CN(Cc4ccccc4)C(=O)[C@@]3(C)[C@H]2C1=O | inconclusive: 22.4 µM [inhibitor, single point]
COc1ccc(NC(=O)C/C(C)=N/NC(=O)c2cccs2)c([N+](=O)[O-])c1 | inactive
CCOc1ccc2nc(NC(=O)c3cc(=O)c4cc(C)cc(C)c4o3)sc2c1 | inactive
CCOC(=O)/C(=N\Nc1cc(Cl)ccc1Cl)N1CCN(CC)CC1 | inconclusive: 2.82 µM [inhibitor, partial curve]
COC(=O)CCCC1=CC2=C(c3ccccc3)C(=O)C(C)(OC(=O)C3CCCC3)C(=O)C2=CN1c1ccc(OC)cc1 (stereo not drawn) | inconclusive: 56.2 µM [inhibitor, single point]
COc1ccc(NC(=O)c2cn3c4c(ccc(Cl)c4c2=O)OC(C)C3)cc1OC (stereo not drawn) | inactive
CCN(CC)S(=O)(=O)c1ccc2oc(C(=O)Nc3ccc(OC)cc3OC)c(C)c2c1 | inactive
